{
  "source": "the supplement of paper PMC8728848",
  "assay_in_all_cases": "glycan array binding signal (z-score within array); higher = stronger binding",
  "details_in_all_cases": "glycan notation: IUPAC condensed, linker removed; mutation: Y228A",
  "key": {"Neu5Ac(a2-8)Neu5Ac": {"target": "Neu5Ac(a2-8)Neu5Ac", "in_short": "(§1)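 Glycan array data were curated from 3228 arrays in the Consortium for Functional Glycomics database and kept only where the protein sequence was available. Glycan names were converted to IUPAC-condensed notation, and columns mapping to the same glycan were averaged. The binding signal is a within-array Z-score, averaged across arrays of the same protein sequence at different concentrations or buffers and across linkers. Negative Z-scores can be read as non-binding.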"}, "[1]": {"target": "Neu5Ac(a2-8)Neu5Ac(a2-3)Gal(b1-3)GalNAc(b1-4)[Neu5Ac(a2-3)]Gal(b1-4)Glc", "in_short": "as §1"}, "[2]": {"target": "Neu5Ac(a2-8)Neu5Ac(a2-3)Gal(b1-3)GalNAc(b1-4)[Neu5Ac(a2-8)Neu5Ac(a2-3)]Gal(b1-4)Glc", "in_short": "as §1"}, "[3]": {"target": "Neu5Ac(a2-8)Neu5Ac(a2-3)Gal(b1-4)Glc", "in_short": "as §1"}, "[4]": {"target": "Neu5Ac(a2-8)Neu5Ac(a2-3)Gal(b1-4)GlcNAc", "in_short": "as §1"}, "[5]": {"target": "Neu5Ac(a2-8)Neu5Ac(a2-3)[Gal(b1-3)GalNAc(b1-4)]Gal(b1-4)Glc", "in_short": "as §1"}, "[6]": {"target": "Neu5Ac(a2-8)Neu5Ac(a2-3)[GalNAc(b1-4)]Gal(b1-4)Glc", "in_short": "as §1"}, "[7]": {"target": "Neu5Ac(a2-8)Neu5Ac(a2-8)Neu5Ac", "in_short": "as §1"}, "[8]": {"target": "Neu5Ac(a2-8)Neu5Ac(a2-8)Neu5Ac(a2-3)Gal(b1-4)Glc", "in_short": "as §1"}, "[9]": {"target": "Neu5Ac(a2-8)Neu5Ac(a2-8)Neu5Ac(a2-3)[Gal(b1-3)GalNAc(b1-4)]Gal(b1-4)Glc", "in_short": "as §1"}, "[10]": {"target": "Neu5Ac(a2-8)Neu5Ac(a2-8)Neu5Ac(a2-3)[GalNAc(b1-4)]Gal(b1-4)Glc", "in_short": "as §1"}, "[11]": {"target": "Neu5Ac(a2-8)Neu5Ac(a2-8)Neu5Ac(a2-8)Neu5Ac(a2-3)[GalNAc(b1-4)]Gal(b1-4)Glc", "in_short": "as §1"}, "[12]": {"target": "Neu5Ac(a2-8)Neu5Gc(a2-3)Gal(b1-4)GlcNAc", "in_short": "as §1"}, "[13]": {"target": "Neu5Ac(b2-6)Gal(b1-4)GlcNAc", "in_short": "as §1"}, "Neu5Ac(b2-6)GalNAc": {"target": "Neu5Ac(b2-6)GalNAc", "in_short": "as §1"}, "[14]": {"target": "Neu5Ac9Ac(a2-3)Gal(b1-3)GlcNAc", "in_short": "as §1"}, "[15]": {"target": "Neu5Ac9Ac(a2-3)Gal(b1-4)GlcNAc", "in_short": "as §1"}, "[16]": {"target": "Neu5Ac9Ac(a2-6)Gal(b1-4)GlcNAc", "in_short": "as §1"}, "[17]": {"target": "Neu5Gc(a2-3)Gal(b1-3)GlcNAc", "in_short": "as §1"}, "[18]": {"target": "Neu5Gc(a2-3)Gal(b1-3)[Fuc(a1-4)]GlcNAc", "in_short": "as §1"}, "Neu5Gc(a2-3)Gal(b1-4)Glc": {"target": "Neu5Gc(a2-3)Gal(b1-4)Glc", "in_short": "as §1"}, "[19]": {"target": "Neu5Gc(a2-3)Gal(b1-4)GlcNAc", "in_short": "as §1"}, "[20]": {"target": "Neu5Gc(a2-3)Gal(b1-4)GlcNAc(b1-3)Gal(b1-4)GlcNAc(b1-2)Man(a1-3)[Neu5Gc(a2-3)Gal(b1-4)GlcNAc(b1-3)Gal(b1-4)GlcNAc(b1-2)Man(a1-6)]Man(b1-4)GlcNAc(b1-4)GlcNAc", "in_short": "as §1"}, "[21]": {"target": "Neu5Gc(a2-3)Gal(b1-4)[Fuc(a1-3)]GlcNAc", "in_short": "as §1"}, "[22]": {"target": "Neu5Gc(a2-6)Gal(b1-4)GlcNAc", "in_short": "as §1"}, "Neu5Gc(a2-6)GalNAc": {"target": "Neu5Gc(a2-6)GalNAc", "in_short": "as §1"}, "[23]": {"target": "Neu5Gc(a2-8)Neu5Ac(a2-3)Gal(b1-4)GlcNAc", "in_short": "as §1"}, "[24]": {"target": "Neu5Gc(a2-8)Neu5Gc(a2-3)Gal(b1-4)GlcNAc", "in_short": "as §1"}, "[25]": {"target": "Neu5Gc(a2-8)Neu5Gc(a2-3)Gal(b1-4)GlcNAc(b1-3)Gal(b1-4)GlcNAc", "in_short": "as §1"}, "[26]": {"target": "Neu5Gc(a2-8)Neu5Gc(a2-6)Gal(b1-4)GlcNAc", "in_short": "as §1"}, "[27]": {"target": "Neu5Gc(b2-6)Gal(b1-4)GlcNAc", "in_short": "as §1"}},
  "note": "This is one part of the list.",
  "data": [
    {"binder": "Epa1-NP-mutant-Y228A (Candida glabrata), Q6VBJ0 (protein) MILNPALFLNKCVCIYTTLILLLLTNGGYATSSNDISLASKDPTTFPLGCSPDITTPKKGLSMELYSYDFRKKGSYPCWDAAYLDPNYPRTGYKSHRLLAKVDGVTGNINFYYHATKGCTPQLGHLPASYNYPKPLTMTNFTMLLYGYFRPKVTGFHTFTISADDLLFVNFGAGNAFDCCRRDSSADHFGNYQAYAIWGSKTAKDELTVHLDAGVYYPIRLFYNNREADGALSFTFKTESNENTVSDFSEYFFSLDDTEEGCPGLISYDSSCASVKTSKIIGIDYHTETPNENLVPITKTIYHLGIPCTGTTTTPLCGSGFYDPLANKCVTINTSSTSSVTKTTSHTTSKEVSFHSSISSQKTLIPKSIPSPYGPIKSQSIPTEMETSSEISSSEYAFSDVISTPSHSPYTKKHSSLNSSSYTSTVIHSLTSYSISQGIFSTSLSEQNITSKSSTDKFSTATSMSNNITQSSIIISQFSTNNENYTTTSMHTSSDKISTETLNNSISTTTSILFSNSSTILKNNTTIISSDKDTHYHPVNPTIVCSTNKTEIICASITQPSISNSNNHWSSSVLKFNSTTVRSTLPSSAGSNETSINVPFSSSTESNTSTSSTSTSNSKMVRSTLPSSAGSNETSISVPFSSSTESNTSTSSTSTSNSKMVRSTLPSSAGSNETSINVPFSSSTESNTSTSSTSTSNSKTVRSTPFSSAGIIMTSLSQRNNKSASSYASSNSKCYNTADSCRKVHSTPSYLLTSSYTSEGVDYDCSLVSTKLKINDTNCVNNKHTTKSCLKTSVTTTIPTLEIKTARKSSSNTIGLHSYPTSSPNKSISSAPIIGYISSFKTIKTASPSYQTSDLTTITTITSLNNPGSTAVENTHESNDKSRKTSSNDISSKHSVIKETKDAVESSNKSHQTNTLKCSSIIIASSSHNSYESLGGTTLTLTLSKVYSPQNNDTLPFLEISEVNPSRTVLPESSKMMQYLTSTEERNKTARNTIATNIVSISTFHFEGEGNAIRMGYTQLLLMLIGIIVMNIGT", "values": [
      {"measurement": "glycan array binding signal (z-score)", "setting": "Neu5Ac(a2-8)Neu5Ac", "result": -0.285},
      {"measurement": "glycan array binding signal (z-score)", "setting": "[1]", "result": -0.187},
      {"measurement": "glycan array binding signal (z-score)", "setting": "[2]", "result": -0.093},
      {"measurement": "glycan array binding signal (z-score)", "setting": "[3]", "result": -0.227},
      {"measurement": "glycan array binding signal (z-score)", "setting": "[4]", "result": -0.316},
      {"measurement": "glycan array binding signal (z-score)", "setting": "[5]", "result": -0.245},
      {"measurement": "glycan array binding signal (z-score)", "setting": "[6]", "result": -0.247},
      {"measurement": "glycan array binding signal (z-score)", "setting": "[7]", "result": -0.241},
      {"measurement": "glycan array binding signal (z-score)", "setting": "[8]", "result": -0.247},
      {"measurement": "glycan array binding signal (z-score)", "setting": "[9]", "result": -0.223},
      {"measurement": "glycan array binding signal (z-score)", "setting": "[10]", "result": -0.111},
      {"measurement": "glycan array binding signal (z-score)", "setting": "[11]", "result": -0.247},
      {"measurement": "glycan array binding signal (z-score)", "setting": "[12]", "result": -0.185},
      {"measurement": "glycan array binding signal (z-score)", "setting": "[13]", "result": -0.229},
      {"measurement": "glycan array binding signal (z-score)", "setting": "Neu5Ac(b2-6)GalNAc", "result": -0.205},
      {"measurement": "glycan array binding signal (z-score)", "setting": "[14]", "result": -0.069},
      {"measurement": "glycan array binding signal (z-score)", "setting": "[15]", "result": -0.24},
      {"measurement": "glycan array binding signal (z-score)", "setting": "[16]", "result": -0.159},
      {"measurement": "glycan array binding signal (z-score)", "setting": "[17]", "result": -0.069},
      {"measurement": "glycan array binding signal (z-score)", "setting": "[18]", "result": -0.119},
      {"measurement": "glycan array binding signal (z-score)", "setting": "Neu5Gc(a2-3)Gal(b1-4)Glc", "result": -0.024},
      {"measurement": "glycan array binding signal (z-score)", "setting": "[19]", "result": -0.185},
      {"measurement": "glycan array binding signal (z-score)", "setting": "[20]", "result": -0.089},
      {"measurement": "glycan array binding signal (z-score)", "setting": "[21]", "result": -0.176},
      {"measurement": "glycan array binding signal (z-score)", "setting": "[22]", "result": -0.177},
      {"measurement": "glycan array binding signal (z-score)", "setting": "Neu5Gc(a2-6)GalNAc", "result": -0.123},
      {"measurement": "glycan array binding signal (z-score)", "setting": "[23]", "result": -0.229},
      {"measurement": "glycan array binding signal (z-score)", "setting": "[24]", "result": -0.341},
      {"measurement": "glycan array binding signal (z-score)", "setting": "[25]", "result": -0.346},
      {"measurement": "glycan array binding signal (z-score)", "setting": "[26]", "result": -0.353},
      {"measurement": "glycan array binding signal (z-score)", "setting": "[27]", "result": 0.134}
    ]}
  ]
}
